Laboratory results: article PMC4336329 (PLoS ONE, 2015)
The whole screen tested about 310,000 compounds, of which about 2,200 (0.71%) showed an effect of 50% or more. Effects have a minus sign here. This is one part of the list.

Each molecule was assayed against human ether-à-go-go-related gene (hERG) potassium channel (human, UniProt Q12809) (assay: primary screen, population patch clamp on CHO cells stably expressing hERG).
Sequence of human ether-à-go-go-related gene (hERG) potassium channel (Q12809 whole entry, looked up): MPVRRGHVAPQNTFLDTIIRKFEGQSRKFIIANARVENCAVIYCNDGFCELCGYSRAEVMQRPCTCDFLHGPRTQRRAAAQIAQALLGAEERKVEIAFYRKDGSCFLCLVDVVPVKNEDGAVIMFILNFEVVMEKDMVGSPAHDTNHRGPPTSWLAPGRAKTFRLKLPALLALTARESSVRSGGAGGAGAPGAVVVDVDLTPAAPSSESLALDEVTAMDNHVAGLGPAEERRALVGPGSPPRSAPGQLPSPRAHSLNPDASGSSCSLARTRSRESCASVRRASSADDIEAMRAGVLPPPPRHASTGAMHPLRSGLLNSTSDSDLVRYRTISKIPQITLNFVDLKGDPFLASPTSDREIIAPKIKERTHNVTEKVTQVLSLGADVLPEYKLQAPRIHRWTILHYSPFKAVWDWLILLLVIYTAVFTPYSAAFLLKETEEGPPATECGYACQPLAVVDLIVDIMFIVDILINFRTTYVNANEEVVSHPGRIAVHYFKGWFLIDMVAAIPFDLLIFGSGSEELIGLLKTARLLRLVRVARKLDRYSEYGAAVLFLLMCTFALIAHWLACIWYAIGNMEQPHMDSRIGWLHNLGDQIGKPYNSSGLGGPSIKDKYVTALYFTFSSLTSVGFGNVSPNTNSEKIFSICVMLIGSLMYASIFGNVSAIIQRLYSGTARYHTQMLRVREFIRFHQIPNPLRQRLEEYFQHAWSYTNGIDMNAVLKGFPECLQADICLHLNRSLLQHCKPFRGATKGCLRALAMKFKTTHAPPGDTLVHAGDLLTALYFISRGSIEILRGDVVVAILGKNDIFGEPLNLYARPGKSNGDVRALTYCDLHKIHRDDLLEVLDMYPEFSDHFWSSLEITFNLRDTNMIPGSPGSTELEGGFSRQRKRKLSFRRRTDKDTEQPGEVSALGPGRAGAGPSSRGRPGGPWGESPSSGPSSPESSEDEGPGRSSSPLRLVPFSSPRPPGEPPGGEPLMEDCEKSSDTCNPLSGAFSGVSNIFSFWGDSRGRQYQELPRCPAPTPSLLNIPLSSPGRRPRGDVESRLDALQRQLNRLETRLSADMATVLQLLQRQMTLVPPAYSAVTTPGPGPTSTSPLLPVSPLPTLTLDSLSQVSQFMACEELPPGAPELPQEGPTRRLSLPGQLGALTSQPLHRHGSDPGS

SMILES | hERG current change (%, negative = inhibition) at 1uM [%]
CCc1ccc(NS(=O)(=O)c2cccc3nsnc23)cc1 | 15.6
COc1ccc(N2CCN(S(=O)(=O)CCNC(=O)c3ccc(Br)o3)CC2)cc1 | 15.1
N#CC1=C(Nc2ccccc2)SC=C(c2ccc(Br)cc2)N=C1N1CCOCC1 | -12.4
Cc1nc(C)c(-c2ccc(SCc3cccc(F)c3)nn2)s1 | 3.24
COc1cc2c(cc1NC(=O)COC(=O)CNS(=O)(=O)c1ccc(C)cc1)oc1ccccc12 | 3.5
Cc1ccccc1OCc1nnc(SCc2cc(=O)[nH]c3ccccc23)o1 | 11.1
CC(=O)c1c(N2CCN(Cc3ccccc3)CC2)[nH]c(-c2ccccc2)nc1=S | 0.636
CN(C)c1ccc(C(=O)OCC(=O)NCCCc2ccccc2)cc1 | 9.86
CC(C)(C)C1CCc2c(sc3ncn(N)c(=N)c23)C1 (stereo not drawn) | -5.75
COc1ccc(N2C(=S)NC3CS(=O)(=O)CC32)cc1 (stereo not drawn) | 13.5
CN(C)CCCSc1nc2ccccc2s1.Cl | 14.1
CCCCc1ccc(NS(=O)(=O)c2cccc(C(=O)N3CCCN(C)CC3)c2)cc1 | 0.134
Oc1ccc(CNc2ccccc2)c2cccnc12 | 17.5
O=C(CCC(=O)c1ccc(F)cc1)Nc1cc(Cl)cc(Cl)c1 | 14.6
CCc1cc(=O)oc2cc(C)cc(OCC(=O)NCc3ccncc3)c12 | -8.01
O=C1C2CC=CCC2C(=O)N1c1n[nH]c(CCc2ccccc2)n1 (stereo not drawn) | 4.37
Cc1nn(-c2ccccc2)c(Cl)c1/C=N/NC(=O)OC(C)(C)C | 16.2
COc1ccc(CNC(=O)CCSc2ccc(F)cc2)cc1OC | 8.33
CCC(=NCc1cccnc1)c1c(O)n(-c2ccccc2C)c(=O)[nH]c1=O | 11.9
COc1ccc(Oc2c(C)nc(SCC(=O)c3ccc(Cl)cc3)[nH]c2=O)cc1 | 13.8
Cc1ccc(OCC(=O)NC2=NCCS2)cc1 | 12.2
O=C(CCl)Nc1ccc(-c2ccccc2)cc1 | 13.7
Cc1nn(C)c(C)c1S(=O)(=O)N(CC(=O)NCCCN1CCC(C)CC1)c1ccc(C(C)C)cc1 | -19.5

SMILES | hERG current change (%, negative = inhibition) at 1uM [%]
Cc1ccc(C)c(N2CCN(S(=O)(=O)c3ccc4[nH]c(=O)ccc4c3)CC2)c1 | 9.9
Cc1c(NC(=O)c2cc(-n3cnnc3)ccc2Cl)cccc1-c1nc2ccccc2s1 | -9.7
COc1ccc(CNc2ncnc(N)n2)cc1.Cl | -1.41
CCOC(=O)c1ccc(NC(=O)NC(C)C2CCCO2)cc1 (stereo not drawn) | -4.93
CC(C)CCP(=O)(O)c1ccccc1 | 5.55
O=C(O)CC1(CC(=O)Nc2ccccc2C(=O)c2ccccc2)CCCC1 | 11
O=C([O-])CCSc1ccc2ccccc2n1.[Na+] | 17
Cn1nnnc1SCc1nc2scc(-c3ccc(Cl)cc3)c2c(=O)[nH]1 | -2.22
O=C(Oc1ccccc1F)C1CCN(C(=O)c2ccc(F)cc2)CC1 | 11
Cc1cc(NC(=O)CCCC(=O)N(CC(=O)NCCc2ccccc2)Cc2ccc(F)cc2)no1 | -16.9
O=C(CSc1nnc(C2COc3ccccc3O2)o1)N1CCCCC1 (stereo not drawn) | 4.89
CC(C)(C)c1ccc(C(=O)Cn2nc(C(=O)O)c3ccccc3c2=O)cc1 | 8.77
Cl.NCCCCCC(=O)Nc1ccncc1 | 15.9
O=S(=O)(c1ccc(F)c(F)c1)N1CCN(CCc2ccccc2)CC1 | 15.5
COc1cccc(OCCOCCN(C)CCO)c1 | 9.94
COc1ccc(CNC(=O)C/C(C)=N/NC(=O)COc2cccc(C)c2)cc1 | 2.27
COc1cc(/C=N/NC(=O)C23CC4CC(CC(C4)C2)C3)cc(Br)c1O | 2.46
Cc1cc(NS(=O)(=O)c2ccc(NC(=O)Cc3ccccc3)cc2)nc(C)n1 | 8.3
CCOC(=O)C1=C(N)OC2=C(C(=O)CC(C)(C)C2)C1c1ccccc1OC (stereo not drawn) | 10.9
CCCNS(=O)(=O)c1ccc(C(=O)NCC2CCCO2)cc1 (stereo not drawn) | 3.04
COc1cccc(NC(=O)CN(C)C(=O)c2cccc(S(=O)(=O)Nc3ccc(C)cc3)c2)c1 | 9.89
COC(=O)c1ccc(Nc2ncnc3sccc23)cc1 | 8.08
COC(=O)C(C)Sc1nc2c(c(=O)n1-c1ccccc1)SCC2 (stereo not drawn) | 0.505

SMILES | hERG current change (%, negative = inhibition) at 1uM [%]
CCOc1ccc(NC(=O)C[n+]2ccc(N(C)C)cc2)cc1.[Cl-] | 19.9
CCOC(=O)[C@@H]1[C@H]2COc3cc(OC)ccc3[C@@H]2N2C(=O)N(c3cccc(F)c3)C(=O)[C@@]12C | 13.7
COc1ccc(OCCN2C(=O)c3ccccc3C2=O)cc1 | 6.71
Cc1nn(-c2cccc(Cl)c2)c2c1C(c1ccncc1)C(C#N)=C(N)O2 (stereo not drawn) | 5.94
Cc1nn(-c2ccccc2)c(N)c1N=Nc1cccnc1 | 8.71
COc1ccc(C2c3[nH]c4ccccc4c3C[C@H]3C(=O)N(C4CCN(Cc5ccccc5)CC4)CC(=O)N23)c(OC)c1 (stereo partly drawn) | 11.4
COc1ccc(NS(=O)(=O)c2cccc(C(=O)NNC(=O)c3cccc(NC(C)=O)c3)c2)cc1 | 15.5
CCN(Cc1ccccc1)C(=O)c1c[nH]c2ccc(S(=O)(=O)N(C)CCC#N)cc2c1=O | 0.553
COc1ccc(NC(=O)Nc2ncn(Cc3cccc(C(F)(F)F)c3)n2)cc1OC | -7.14
CC[N+](C)(CC)CCCCOc1ccc2c(c1)C(=O)c1cc(OCCCC[N+](C)(CC)CC)ccc1-2.[I-] | 9.73
CC1CCC(NCCNC(=O)c2ccco2)CC1 (stereo not drawn) | 6.46
CC(=O)c1c(C)[nH]c(C(=O)OCC(=O)Nc2cc(C)on2)c1C | 12.8
Cc1nc(N2CCN(c3ccccc3)CC2)nc2c1C(=O)CC(c1ccccc1)C2 (stereo not drawn) | 19
CC1=NN(C(=O)CSCc2ccccc2)C(O)(c2ccc(F)cc2)C1 (stereo not drawn) | 10.6
Cc1cccc(-n2ncc(Cl)c(Cl)c2=O)c1 | 17.1
CCn1ccnc1CN1CCC(CO)(CCOc2ccccc2)CC1 | 13.1
Cc1ccccc1-c1c(C)oc2cc(O)ccc2c1=O | 7.86
O=C(Nc1nncs1)c1cc(S(=O)(=O)N2CCCCC2)ccc1Cl | 13.3
Cc1ccc(Nc2nnc(SCC(=O)NC3CCS(=O)(=O)C3)s2)c(C)c1 (stereo not drawn) | 8.28
O=C(CSc1nc(-c2ccco2)cc(C(F)(F)F)n1)N1CCN(c2cccc(Cl)c2)CC1 | 11.8
CCc1nc(N)c(C#N)c(-c2ccc(F)cc2)c1C | 4.46
c1ccc(N=P(c2nc3ccccc3o2)(N2CCOCC2)N2CCOCC2)cc1 | 11.2
Cc1cccn2cc(CCNC(=O)c3ccc(Br)o3)nc12 | -0.0936

SMILES | hERG current change (%, negative = inhibition) at 1uM [%]
O=C(COc1cc(Cl)c(Cl)cc1Cl)N1CCN(c2ccccn2)CC1 | 11.7
O=C(Cn1cnc([N+](=O)[O-])c1)NCc1ccc(F)cc1 | 10.6
O=C(CN1C(=O)c2ccccc2C1=O)N1CCN=C1c1ccccc1 | 15.7
CCOc1ccc(NC(=O)CC2SC(N)=NC2=O)c([N+](=O)[O-])c1 (stereo not drawn) | 15.9
N#Cc1c(N2C(=O)C3C4C=CC(C4)C3C2=O)sc2c1CCC2 (stereo not drawn) | 16.1
N=Cc1c(O)n(-c2ccccc2)c(=O)n(-c2ccccc2)c1=O | 7.5
O=C(Nc1nc2ccccc2n1CCN1CCOCC1)c1ccc(Cl)cc1 | 11.5
Cc1ccccc1OCC(=O)Nc1ccc(NC(=O)c2ccco2)cc1 | 4.57
CC(=O)Nc1cccc(C(=O)NCCc2ccco2)c1 | 10.8
Cc1cccn2c(=O)c3cc(C(=O)N4c5ccccc5CC4C)n(C)c3nc12 (stereo not drawn) | 9.27
Cc1onc(-c2ccccc2Cl)c1C(=O)Nc1cccc2cccnc12 | 7.37
CCN1CCN(c2ccc(S(=O)(=O)N3CCCCC3)cc2N)CC1 | 3.74
O=C(Oc1cccc([N+](=O)[O-])c1)C1CCN(C(=O)c2ccc(F)cc2)CC1 | -3.31
CCCN(CCC)CCCNC(=O)c1ccc(CS(=O)(=O)c2c(Cl)cccc2Cl)o1 | -59.1
CN(C1CCS(=O)(=O)C1)S(=O)(=O)c1ccc(C2CCCCC2)cc1 (stereo not drawn) | 3.15
COc1ccc(C(=O)N2CCOCC2)cc1Br | 14.2
O=C1CC(C(=O)N2CCN(Cc3ccccc3)CC2)CN1Cc1ccccc1 (stereo not drawn) | -10.5
O=C(O)C1CCCN1C(=O)OCc1ccccc1 (stereo not drawn) | 5.34
O=C(NC1CC(=O)N(c2ccc3c(c2)OCCO3)C1)N1CCCCC1 (stereo not drawn) | 11.7
CC/C(=N/O)C(=O)c1ccc(Br)cc1 | 2.46
CSc1ccc(CN2CCC(Oc3cccc(C(=O)N4CCCC4)c3)CC2)cc1 | -36.7
